Source: PubChem BioAssay AID2147 (National Center for Advancing Translational Sciences (NCATS), 2009)
Among all 230,000 compounds or so, about 3,600 (1.6%) were called active. Inconclusive means that the source gave no clear call. Such entries were picked first, then a sample of the others. The call rests on the fitted dose curve; in most records, active means well fitted inhibition curve with a large enough effect (not every such curve was filed as active); inconclusive means small, poorly fitted or top-dose-only effect, or another doubt; inactive means no such curve, though single readings can be large or run the other way. Potencies of inconclusive entries are doubtful fits and often do not repeat.

target: Lysine-specific demethylase 4E (Homo sapiens) (UniProt B2RXH2); experiment: qHTS Assay for Inhibitors of Human Jumonji Domain Containing 2E (JMJD2E); details: JMJD2E catalytic domain, FDH-coupled NADH fluorescence (FDH is formaldehyde dehydrogenase); series mostly up to 57.1 µM; activity change, negative = inhibition: at the top concentration
UniProt B2RXH2, sequence (B2RXH2 whole entry, looked up, the tested form may be a part): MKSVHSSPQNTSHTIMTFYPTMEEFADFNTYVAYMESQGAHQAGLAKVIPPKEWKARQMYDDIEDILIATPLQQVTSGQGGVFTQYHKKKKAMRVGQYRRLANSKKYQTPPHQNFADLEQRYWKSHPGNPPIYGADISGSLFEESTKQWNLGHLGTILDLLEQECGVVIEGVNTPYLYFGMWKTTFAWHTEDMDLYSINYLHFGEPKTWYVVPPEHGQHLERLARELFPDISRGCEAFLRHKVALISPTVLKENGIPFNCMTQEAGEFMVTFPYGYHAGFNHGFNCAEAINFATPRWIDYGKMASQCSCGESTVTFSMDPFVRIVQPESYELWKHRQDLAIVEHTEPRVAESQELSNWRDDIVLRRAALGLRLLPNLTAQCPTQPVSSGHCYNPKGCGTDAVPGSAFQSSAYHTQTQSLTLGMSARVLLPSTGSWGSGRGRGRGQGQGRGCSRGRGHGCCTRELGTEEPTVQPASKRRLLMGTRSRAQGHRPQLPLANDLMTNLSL
Further: nearly all actives have a fitted effect of over 50% in size.
Potency means the concentration at half of the fitted maximal effect; tags describe the fitted curve by direction and shape.
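Wherever activity change, negative = inhibition is given: 0% = wells with enzyme and -100% = buffer wells without enzyme.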

| SMILES | Potency | activity change, negative = inhibition |
| --- | --- | --- |
| Cc1nn(-c2ccccn2)c2nc(-c3cccs3)cc(C(=O)NCc3ccco3)c12 | inconclusive: 31.6 µM [inhibitor, partial curve] | – |
| Cc1cnc(C(=O)Oc2c(C)ccc(C)c2C)cn1 | – | inactive: -4.67% |
| O=C(c1ccccc1F)N1C(=O)c2cccc3cccc1c23 | inconclusive: 22.4 µM [inhibitor, partial curve] | – |
| CC(C)c1ccc(N2C=Nc3ccc(C(C)C)cc3C2)cc1 | – | inactive: -5.95% |
| O=C(Cc1nc2ccccc2s1)c1ccc(O)cc1O | inconclusive: 39.8 µM [inhibitor, single point] | – |
| COc1ccc2c(c1)c(=O)oc1cc(OCC(=O)N3CCc4ccccc4C3)ccc12 | inconclusive: 11.9 µM [inhibitor, partial curve] | – |
| CC(=O)N(C)c1nnc(-c2ccccn2)s1 | inconclusive: 35.5 µM [inhibitor, single point] | – |
| Cc1c(CCCN)c2ccccc2n1Cc1ccccc1 | inconclusive: 39.8 µM [inhibitor, single point] | – |
| O=C(O)c1[nH]nc2c1COc1ccccc1-2 | inconclusive: 31.6 µM [inhibitor, partial curve] | – |
| CCOC(=O)c1ccccc1NC(=O)CSc1nc(N)cc(N)n1 | – | inactive: 3.7% |
| Cc1c(Cl)cccc1NC(=S)N1CCN(c2ncccn2)CC1 | inconclusive: 39.8 µM [inhibitor, single point] | – |
| O=C(NN1CCOCC1)c1cc(-c2cccs2)nc2ccccc12 | inconclusive: 28.2 µM [inhibitor, partial curve] | – |
| CSCSC1=C(C#N)C(c2ccc(Cl)cc2)C(C(C)=O)=C(C)N1 (stereo not given) | inconclusive: 28.2 µM [inhibitor, single point] | – |
| CCCNC(=O)C1CCN(S(=O)(=O)c2c(C)noc2/C=C\c2ccc(OC)cc2)CC1 | inconclusive: 35.5 µM [inhibitor, single point] | – |
| O=[N+]([O-])c1ccccc1CN1CCN(Cc2ccccn2)CC1 | inconclusive: 25.1 µM [inhibitor, single point] | – |
| N#CC(C(=O)NCc1ccccc1)c1nc2ccccc2nc1N1CCCC1 (stereo not given) | inconclusive: 35.5 µM [inhibitor, single point] | – |
| O=C(NCC1CCCO1)c1ccc(OC2CCN(C(=O)C3CC3)CC2)cc1 (stereo not given) | inconclusive: 25.1 µM [inhibitor, single point] | – |
| O=S(=O)(Nc1cc(Sc2cccc3cccnc23)c(O)c2ccccc12)c1ccc(F)cc1 | active: 28.2 µM | – |
| Cc1ccc(NC2CC(=O)N(Cc3ccccc3)C2=O)cc1 (stereo not given) | – | inactive: 8.46% |
| COc1ccc(-c2nc(N)nc(C)c2Oc2ccccc2Br)c(O)c1 | – | inactive: -3.99% |
